Data: PubChem BioAssay AID493208 (National Center for Advancing Translational Sciences (NCATS), 2011)
Hit rate of the full screen: of about 44,000 compounds, about 340 (0.77%) were called active. About 5% were inconclusive and are not listed. Calls follow the shape of the dose curve; as a rule, active = well fitted inhibition curve with a large enough effect; inconclusive = small, poorly fitted or top-dose-only effect; inactive = flat fitted curve, though single readings scatter. Some of the results follow.

assay: Acumen qHTS Assay for Inhibitors of the mTORC1 Signaling Pathway in MEF (Tsc2-/-, p53-/-) Cells: Sytravon; settings: phospho-rpS6 immunofluorescence/PI, 24 h; series mostly up to 38.3 µM; activity change, negative = inhibition: at the top concentration; also: nearly all actives have a fitted effect of over 50% in size;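 as to activity change, negative = inhibition: plate controls were DMSO for no effect and rapamycin for full effect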
Outline: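 Cell-based qHTS: Tsc2-/- p53-/- MEF, 24 h cpd, 37 °C; fix/perm, anti-phospho-S6 Alexa-488 + PI; Acumen 488 nm scan; pS6/PI ratio, % positive cells; rapamycin 7.5 nM = inhibition ref; PI count = viability.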
Potency is read from the fitted curve at half-maximal effect.

Compound | activity change, negative = inhibition | Potency
Cc1sc2ncn(CC(=O)N(C)c3ccc(Br)cc3)c(=O)c2c1S(=O)(=O)N1CCC(C)CC1 | inactive: -0.862% | 
Cc1nc2c(C(=O)NCc3ccccc3)c[nH]n2c(=O)c1Cc1ccccc1Cl | inactive: 4.62% | 
Cc1cccc(NC(=O)c2c(C)oc3ncn(CC(C)C)c(=O)c23)n1 | inactive: 6.91% | 
CC(=O)N1CCc2cc(S(=O)(=O)CCC(=O)N3CCN(c4cccc(C)c4C)CC3)ccc21 | inactive: -5.54% | 
COc1ccc(NC(=O)c2noc3c2CCCC3)cc1Cl | inactive: -14% | 
O=C(NCCc1ccccc1)c1cc(-c2ccc(Cl)cc2)on1 | inactive: 5.63% | 
COc1cccc(NC(=O)Nc2cccc(-c3cn4cccnc4n3)c2)c1 | inactive: 1.55% | 
CCOc1ccc(-c2nnc(Nc3ccc(S(N)(=O)=O)cc3)c3ccccc23)cc1 | inactive: 11.3% | 
CCCOC1(C(F)(F)F)NC(=O)N(c2ccc(Cl)cc2)C1=O (stereo unspecified) | inactive: 7.61% | 
Cc1cc(C)c(NC(=O)CSc2nc(=O)[nH]c3c2CCCC3)c(C)c1 | inactive: -1.61% | 
O=C(NC(=O)c1ccc(F)cc1)Nc1ccc(-c2cc(C(F)(F)F)nn2-c2ccccc2)cc1 | inactive: -7.3% | 
O=C(NCCc1csc2nc(-c3ccccc3F)nn12)c1ccco1 | inactive: 0.0684% | 
Cc1oc2c(c(C)cc3oc(=O)c(CC(=O)NCCc4ccccc4)c(C)c32)c1C | inactive: 4.88% | 
CN1C(C(=O)c2ccccc2)=C(OC(=O)c2ccc(Br)cc2)c2ccccc2S1(=O)=O | inactive: -2.36% | 
Cc1ccc(NC(=O)Nc2ccc3c(c2)N(C)C(=O)c2ccccc2S3)c(C)c1 | inactive: -18.8% | 
COc1ccccc1NC(=O)c1c(NCc2ccc(OC)c(OC)c2OC)sc2c1CCCC2 | inactive: -10.1% | 
CCOC(=O)c1c(C)[nH]c(C)c1S(=O)(=O)NCC(=O)Nc1cc(C)ccc1OC | inactive: 4.87% | 
CCN1CCN(CCCNC(=O)c2cnn(-c3ccccc3)c2C2CCN(C(=O)OC(C)(C)C)CC2)CC1 | inactive: 1.27% | 
COc1ccc(N2CCN(S(=O)(=O)CCNC(=O)C(c3ccccc3)c3ccccc3)CC2)cc1 | inactive: -0.73% | 
COc1cccc(C2C=C(c3ccc(C)c(C)c3)Nc3nnnn32)c1OC (stereo unspecified) | inactive: -18% | 
Cc1ccc(C)c(CN2C(=O)C(=O)c3ccccc32)c1 |  | active: 2.93 µM
O=C1CSC2(C(=O)N(Cc3ccccc3F)c3ccccc32)N1c1ccc(F)cc1 (stereo unspecified) | inactive: -3.77% | 
COc1ccc(-n2ccnc2SCC(=O)Nc2ccc(F)cc2F)cc1 | inactive: -5% | 
Cc1cc2nn(-c3ccccc3)nc2cc1NC(=O)c1cccc2c(Cl)cccc12 | inactive: 13.5% | 

Compound | activity change, negative = inhibition | Potency
O=C(NCCc1ccccc1)c1ccc(CS(=O)(=O)c2ccc(Br)cc2)o1 | inactive: 0.328% | 
Cc1ccc2onc(CNC(=O)N3CCN(c4cccc(C)c4C)CC3)c2c1 | inactive: -16.1% | 
COc1ccc(-c2cc(C(=O)Nc3cccnc3Cl)no2)cc1OC | inactive: 1.62% | 
COc1ccc(CCC(=O)N2CCc3c([nH]c4ccccc34)C2c2ccc(F)cc2)cc1 (stereo unspecified) | inactive: -10.2% | 
Cc1nc2cccnc2n1-c1cccc(C(=O)N2CCN(c3ccc(Cl)cc3)CC2)c1 | inactive: -14.7% | 
CCC(=O)N1c2ccccc2CC1C(=O)NCc1ccc(OC(C)C)cc1 (stereo unspecified) | inactive: 2.48% | 
CCN(CCCNC(=O)Cn1ncc2c([nH]c3ccc(C)cc32)c1=O)c1cccc(C)c1 | inactive: -3.61% | 
COc1ccc(C2CC(=O)Nc3c2c(C)nn3-c2nncc(-c3ccc(C)cc3)n2)c(OC)c1OC (stereo unspecified) | inactive: 2.9% | 
Cc1cccc(CCNC(=O)c2sc3nc4n(c(=O)c3c2C)CCCC4)c1 | inactive: -2.39% | 
CCc1ccccc1NC(=O)c1ccc2c(c1)N(Cc1cccc(Cl)c1)C(=O)c1ccccc1S2(=O)=O | inactive: -8.19% | 
Cc1csc2nc(-c3cccc(NC(=O)C(C)C)c3)cn12 | inactive: 0% | 
CCOc1ccc(-c2nc(SCC(=O)Nc3ccc4c(c3)OCO4)c(-c3ccc(F)cc3)[nH]2)cc1 | inactive: -31.3% | 
O=C1c2oc3ccccc3c(=O)c2C(c2ccccc2)N1Cc1ccc2c(c1)OCO2 (stereo unspecified) | inactive: -11.7% | 
CN1C(=O)c2ccccc2Sc2ccc(NC(=O)c3ccccc3F)cc21 | inactive: -3.09% | 
Cc1c(-c2nsc(NC(=O)c3ccccc3)n2)nnn1-c1ccc(C(F)(F)F)c(Cl)c1 | inactive: -20.8% | 
CCOC(=O)c1cccc(NC(=O)[C@@H](c2ccccc2)N2Cc3ccccc3C2=O)c1 | inactive: -11.7% | 
Cc1cc(C)c(NC(=O)Cc2csc(C)n2)c(Cl)c1 | inactive: -3.1% | 
CCN1C(=O)c2ccccc2Sc2ccc(C(=O)NCCCN(CC(C)C)CC(C)C)cc21 | inactive: -3.55% | 
COC(=O)c1c(-c2cccs2)csc1NC(=O)COc1ccc(C(C)(C)C)cc1 | inactive: -0.265% | 
COc1ccccc1CNc1ccc(-c2nc(-c3cccnc3)no2)cc1[N+](=O)[O-] | inactive: -0.0754% | 
CCOc1ccccc1NC(=O)c1nn(-c2ccc(C)cc2)c(=O)n(C)c1=O | inactive: -8.94% | 
CCOc1ccccc1C1C(C(=O)N2CCCCC2)=C(C)Nc2nc3ccccc3n21 (stereo unspecified) | inactive: -27.7% | 
COc1ccc(N(C)C(=O)CCn2cnc3onc(-c4ccc(F)cc4)c3c2=O)c(OC)c1 | inactive: -7.33% | 
COc1cccc(NC(=O)CN2C(=O)c3cccnc3Oc3ccc(Cl)cc32)c1 | inactive: -13.7% | 

Compound | activity change, negative = inhibition | Potency
CCc1ccc(NC(=O)c2sc(-n3nc(C)c(Cc4ccc(OC)cc4)c3C)nc2C)cc1 | inactive: -18.5% | 
CCCCCS(=O)(=O)c1oc(-c2cccs2)nc1S(=O)(=O)c1ccc(C)cc1 | inactive: 3.65% | 
CC(C)(C)OC(=O)N1CCC(c2c(C(=O)N3CCC(c4ccccc4)C3)cnn2-c2cccc(Cl)c2)CC1 (stereo unspecified) | inactive: -1.99% | 
COc1ccc(C2CC(=O)N(CC(=O)Nc3cc(C)ccc3C)c3ccccc3S2)cc1 (stereo unspecified) | inactive: -10.4% | 
CCCCN(CCCC)C(=O)c1cc2c(=O)n3cccc(C)c3nc2s1 | inactive: 0.312% | 
Cc1cccc(OCC(=O)N(Cc2cccs2)c2ccc(Cl)cc2)c1C | inactive: -8.76% | 
Cc1cc2n(n1)C(c1cc(C(C)(C)C)c(O)cc1O)Nc1ccccc1-2 (stereo unspecified) | inactive: -3.56% | 
CCOc1ccc(C(=O)N2CCC(c3nc4ccccc4o3)CC2)cc1 | inactive: -5.36% | 
CSc1cccc(NC(=O)CN2C(=O)COc3ccc(Cl)cc32)c1 | inactive: -1.9% | 
CCOc1ccc(OCC)c(NC(=O)c2nnn(CC(=O)Nc3ccc(C)cc3C)c2N)c1 | inactive: 2.5% | 
CCCCOc1ccc(C(=O)Nc2cccc(-c3nc4cccnc4s3)c2)cc1 | inactive: 3.32% | 
COc1ccc(NC(=O)COc2ccc(-c3nn(C)c(=O)c4ccccc34)cc2)cc1 | inactive: -6.79% | 
COc1ccccc1CNC(=O)C(NS(=O)(=O)c1cccs1)C(C)C (stereo unspecified) | inactive: -8.93% | 
Cc1ccc(-c2nc3sc(CCNC(=O)c4ccc(Br)o4)c(C)n3n2)cc1 | inactive: -1.54% | 
CCCCc1ccc(NC(=O)c2cc3c(=O)n4ccccc4nc3s2)cc1 | inactive: 2.69% | 
COc1ccccc1-c1nnc(SCC(=O)c2ccc(Cl)cc2)n1-c1ccccc1 | inactive: -7.46% | 
CCOc1ccc(NC(=O)CSc2nc3c(oc4ccccc43)c(=O)n2-c2ccccc2C)cc1 | inactive: -9.43% | 
CC(NC(=O)c1ccc2c(c1)CCN2S(=O)(=O)c1ccc(Cl)cc1)c1ccccc1 (stereo unspecified) | inactive: -5.36% | 
Cc1ccc(NC(=O)NCCc2c(C)nn(C)c2C)cc1Cl | inactive: 4.78% | 
CCn1ccc2cc(S(=O)(=O)N3CCCN(C(=O)Nc4cccc(Cl)c4)CC3)ccc21 | inactive: -13.2% | 
COc1ccc(C2=NN(CC(=O)NCCc3ccc(OC)c(OC)c3)C(=O)CC2)cc1 | inactive: -10.9% | 
COc1ccc(N(C)C(=O)c2cn(C3CCCCC3)c(=O)c3c2c2ccccc2n3C)cc1 | inactive: -29.1% | 
CCOC(=O)c1c(S(=O)(=O)N2CCCC(C(=O)Nc3cccc(Cl)c3)C2)c(C)n(C)c1C (stereo unspecified) | inactive: -4.49% | 
CCCCN(CC)CCCNC(=O)CCN1N=C(c2ccc(OC)cc2)CCC1=O | inactive: 1.89% | 

Compound | activity change, negative = inhibition | Potency
COc1ccccc1NC(=O)C(=O)NCCc1csc(-c2cccc(F)c2)n1 | inactive: -1.97% | 
COc1ccccc1NC(=O)C1=C(C)Nc2ncnn2C1c1ccccc1C(=O)O (stereo unspecified) | inactive: -1.66% | 
COc1cccc(CNC(=O)c2cc3c(s2)-c2ccccc2OC3)c1 | inactive: -0.246% | 
COc1ccc(-n2c(=O)c3c4c(sc3n(Cc3ccc(F)cc3)c2=O)CCCC4)c(OC)c1 | inactive: -6.08% | 
COc1ccc(NC(=O)c2cc(C3CC3)nc3c2c(C)nn3-c2ccccc2)cc1 | inactive: 0.726% | 
Cc1ccc(OCC(=O)Nc2nnc(SCc3cc(=O)c4ccccc4[nH]3)s2)cc1 | inactive: 5.03% | 
Cc1cc(N2CCCCC2)nc2ccc(NC(=O)c3cccc(Cl)c3)cc12 | inactive: 0.854% | 
CCc1ccc(-n2c(=O)c3cccnc3n2CC(=O)Nc2cc(F)ccc2F)cc1 | inactive: 2.72% | 
CCOC(=O)N1CCc2c(sc(NCc3cc(OC)c(OC)cc3OC)c2C(=O)Nc2ccc(OCC)cc2)C1 | inactive: -5.06% | 
CCN(CC)C(=O)Cn1cc(SCC(=O)Nc2ccccc2C)c2ccccc21 | inactive: -7.9% | 
CCN1CCN(c2ncc3c(n2)CCN(Cc2ccc(OC(C)C)cc2)C3)CC1 | inactive: 1.82% | 
CCOC(=O)c1cccc(NC(=O)NCc2ccc3c(c2)CCN3C(=O)c2ccccc2)c1 | inactive: -16.9% | 
Cc1cccc(-c2nc(SCCCOc3ccc(Cl)c(C)c3)n3[nH]c(=O)cc3n2)c1 | inactive: 8.68% | 
CCOC(=O)c1ccc(-c2ccc(/C=C(\C#N)C(=O)Nc3ccc(OCC)cc3)o2)cc1 | inactive: 4.93% | 
COC(=O)c1nnn(-c2cccc(C)c2)c1C(=O)OC | inactive: -7.85% | 
COc1ccc(C2(CNC(=O)C(=O)Nc3ccc(F)cc3)CCCC2)cc1OC | inactive: 0.814% | 
COc1ccc(Cl)cc1-n1nnc(-c2nsc(NC(=O)c3ccccc3Cl)n2)c1C | inactive: 4.61% | 
CCCSc1nc2sc3c(c2c(=O)n1Cc1ccccc1)CC(C)(CC)OC3 (stereo unspecified) | inactive: -3.1% | 
Cc1ccc(NC(=O)C2CCC(CNS(=O)(=O)c3csc(C(N)=O)c3)CC2)cc1Cl (stereo unspecified) | inactive: -8.05% | 
CCc1ccccc1NC(=O)C(=O)NCC(c1cccnc1)N1CCN(c2ccccc2F)CC1 (stereo unspecified) | inactive: 2.09% | 
CCc1nn(Cc2cc(C)ccc2C)c(=O)c2cc3cc(C)ccc3n12 | inactive: -3.39% | 
CCOC(=O)c1c(S(=O)(=O)NCC(=O)Nc2cc(C)ccc2C)c(C)n(C)c1C | inactive: -5.12% | 
Cc1ccc(NS(=O)(=O)c2ccc3c(c2)CCCN3C(=O)C2CCC2)c(C)c1 | inactive: -14.8% | 
CCc1nn2c(=O)cc(COC(=O)c3ccco3)nc2s1 | inactive: -25.3% | 
